# Reference: PubChem BioAssay AID1460 (National Center for Advancing Translational Sciences (NCATS), 2008)
# “And” between values parts separate entries of the source, which are not always exact repeats. Equal values may be shown once. The campaign covered roughly 270,000 compounds. About 5,800 (2.1%) were called active. Inconclusive means that the source gave no clear call. Such entries were picked first, then a sample of the others. Calls come from the whole dose curve; as a rule, active = well fitted inhibition curve with a large enough effect; inconclusive = small, poorly fitted or top-dose-only effect; inactive = flat fitted curve, though single readings scatter. Potencies beside an inconclusive call are fits to weak or partial responses and may not hold up.
# Molecular target: Microtubule-associated protein tau (Homo sapiens) (UniProt P10636)
# Assay: qHTS for Inhibitors of Tau Fibril Formation, Thioflavin T Binding; note: nearly all actives have a fitted effect of over 55% in size
# Conditions: recombinant tau K18 P301L (four-repeat tau fragment), heparin-induced fibrillization, ThT fluorescence; series mostly up to 57.4 µM
# How it was run: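 Recombinant human tau K18 fragment […] carrying P301L, 15 uM unlabeled plus 0.24 uM Alexa 594-labeled, was fibrillized with 20 uM heparin in 100 mM sodium acetate pH 7 for 6 hr at 37 C; 30 uM ThT fluorescence read after 1 hr.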
# Potency is the fitted concentration of half-maximal effect; tags give direction and shape of the fitted curve.
# Sequence of UniProt P10636 (P10636 whole entry, looked up): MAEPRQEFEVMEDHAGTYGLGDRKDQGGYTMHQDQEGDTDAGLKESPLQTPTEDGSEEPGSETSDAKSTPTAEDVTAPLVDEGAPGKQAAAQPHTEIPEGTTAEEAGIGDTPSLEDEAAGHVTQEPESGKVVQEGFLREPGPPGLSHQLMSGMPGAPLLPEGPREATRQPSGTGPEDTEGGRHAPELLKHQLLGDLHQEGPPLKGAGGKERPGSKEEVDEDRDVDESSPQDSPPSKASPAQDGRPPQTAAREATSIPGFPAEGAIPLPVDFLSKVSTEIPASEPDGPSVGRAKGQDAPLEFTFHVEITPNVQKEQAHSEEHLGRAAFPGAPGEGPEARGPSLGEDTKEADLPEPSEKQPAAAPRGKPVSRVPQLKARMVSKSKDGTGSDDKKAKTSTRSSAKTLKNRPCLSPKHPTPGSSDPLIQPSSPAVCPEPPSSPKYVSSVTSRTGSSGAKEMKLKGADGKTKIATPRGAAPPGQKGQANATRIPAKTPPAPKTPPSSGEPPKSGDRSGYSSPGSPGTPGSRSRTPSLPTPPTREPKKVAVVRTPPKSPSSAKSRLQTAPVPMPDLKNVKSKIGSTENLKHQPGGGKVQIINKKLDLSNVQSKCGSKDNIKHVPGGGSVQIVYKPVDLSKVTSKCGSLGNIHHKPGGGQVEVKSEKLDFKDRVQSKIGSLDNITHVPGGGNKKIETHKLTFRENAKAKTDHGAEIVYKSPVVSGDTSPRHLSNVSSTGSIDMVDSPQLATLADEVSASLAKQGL
row,SMILES,Potency
1,CCOc1ccc(NC(=O)N2CCC(c3nc4ccccc4o3)CC2)cc1,"inconclusive: 15.8 µM [inhibitor, partial curve]"
2,COc1ccc(-c2noc(CCC(=O)Nc3cc(Cl)c(OC)cc3OC)n2)cc1,"inconclusive: 22.4 µM [inhibitor, partial curve]"
3,NNC(=O)c1ccc(CSc2cccc3cccnc23)cc1,"inconclusive: 10 µM [inhibitor, partial curve, poor fit]"
4,COc1cc(NC(=O)CSc2nc3nc(C)c(Cc4ccc(C)cc4)c(C)n3n2)cc(OC)c1OC,inactive
5,COc1cccc(C2C3=C(N=C4SCC(=O)N42)c2ccccc2CC3)c1OC (configuration not stated),"inconclusive: 35.5 µM [inhibitor, single point]"
6,CCOc1ccc(Nc2nc3cc(S(=O)(=O)N(CC)CC)ccc3o2)cc1,"inconclusive: 15.8 µM [inhibitor, partial curve, poor fit]"
7,CC1SC(c2ccc(Cl)cc2Cl)NC1=O (configuration not stated),inactive
8,Cc1ccc(OC(=O)COc2ccccc2)c(-n2nc3ccccc3n2)c1,"inconclusive: 25.1 µM [inhibitor, partial curve]"
9,CC(C)C(c1nnnn1C(C)(C)C)N1CCN(c2cccc(Cl)c2)CC1 (configuration not stated),inactive
10,CC(C)[C@H](NS(=O)(=O)c1cccc(Cl)c1)C(=O)OCC(=O)N1CCN(c2ccccc2)CC1,inactive
11,C=C(C)C(=O)/C=C/CCC/C=C/C(=O)OCC,inactive
12,O=C1C2C3C=CC(C4CC34)C2C(=O)N1/N=C/c1ccc(-c2cccc([N+](=O)[O-])c2)o1 (configuration not stated),"inconclusive: 17.8 µM [inhibitor, partial curve, poor fit]"
13,Cc1cccc(NC(c2ccc(O)cc2)c2ccc3ccc(C)nc3c2O)n1 (configuration not stated),"inconclusive: 14.1 µM [inhibitor, partial curve]"
14,COCCCNC(=O)CSc1nc2cc3c(cc2c(=O)n1CCCC(=O)NCc1ccc(OC)cc1)OCO3,"inconclusive: 44.7 µM [inhibitor, single point]"
15,O=C(COc1ccccc1[N+](=O)[O-])Nc1cccc(-c2nc3ccccc3s2)c1,"inconclusive: 0.631 µM [inhibitor, full curve]"
16,Cn1c(=O)c2c(nc(Oc3ccccc3)n2Cc2c(Cl)cccc2Cl)n(C)c1=O,inactive
17,O=c1cc(-c2ccc3c(c2)OCO3)oc2ccccc12,"inconclusive: 3.16 µM [inhibitor, full curve]"
18,COc1ccc(CCNC(=O)CSc2ccc(-c3ccco3)nn2)cc1,"inconclusive: 28.2 µM [inhibitor, single point]"
19,O=C(COc1cccc2cccnc12)N/N=C/c1ccc(O)cc1,"inconclusive: 1.12 µM [inhibitor, full curve]"
20,CC(C(=O)N=Nc1c(O)n(C)c2ccc(Br)cc12)n1cnc2ccccc2c1=O (configuration not stated),"inconclusive: 31.6 µM [inhibitor, partial curve]"
21,Cc1ccc2cc(N)ccc2n1,inactive
22,CCCC(=O)Nc1ccccc1-c1nnn(CC(=O)Nc2ccc(OC)cc2)n1,inactive
23,O=C(O)c1ccc(Cl)c(S(=O)(=O)Nc2ccc3[nH]c(=O)[nH]c3c2)c1,active: 14.1 µM

row,SMILES,Potency
1,CCCCc1nc2n[nH]c(N)c2c2c1CCCC2,"inconclusive: 39.8 µM [inhibitor, single point]"
2,O=C(COCc1cc(-c2ccc3c(c2)OCO3)on1)NCc1ccccc1Cl,"inconclusive: 14.1 µM [inhibitor, partial curve, poor fit]"
3,COc1cc(OC)c2c(O)c3c(c(-c4c5c(c(O)c6c(OC)cc(OC)cc46)CO[C@@H](C)[C@H]5O)c2c1)[C@H](O)[C@H](C)OC3,"inconclusive: 0.316 µM [inhibitor, single point]"
4,Cc1c(C(=O)NC(C)C)oc2c1-c1[nH]ncc1CC2,"inconclusive: 20 µM [inhibitor, partial curve]"
5,O=C(NC1CCN(Cc2ccccc2)CC1)c1ccc(Cn2c(=S)[nH]c3ccc(N4CCOCC4)cc3c2=O)cc1,"inconclusive: 12.6 µM [inhibitor, partial curve]"
6,Cc1[nH]nc(SCC(=O)Nc2ccc(C#N)cc2)c1[N+](=O)[O-],"inconclusive: 22.4 µM [inhibitor, single point]"
7,O=C(CSc1cn(CC(=O)N2CCOCC2)c2ccccc12)Nc1ccccc1,inactive
8,CCc1c(C)nc2ncnn2c1Nc1ccc(C#N)c(Cl)c1,inactive
9,O=C(Nc1c(C(=O)O)oc2ccccc12)c1ccc(C(F)(F)F)cc1,inactive
10,COc1cccc(-c2nn3c(-c4cc(C)[nH]n4)nnc3s2)c1,"inconclusive: 31.6 µM [inhibitor, single point]"
11,O=C(/C=C/c1cccs1)N1CCC2(CC1)Oc1ccc(F)cc1C(=O)C21CC(c2ccc(Cl)cc2)=NO1 (configuration not stated),"inconclusive: 15.8 µM [inhibitor, single point]"
12,CCCCN(CCCC)C1=C(C(=O)c2ccccc2)N(C)S(=O)(=O)c2ccccc21,inactive
13,CCCS(=O)(=O)N1CCCC(C(=O)NCCOC)C1 (configuration not stated),inactive
14,Cc1ccc2nc(-c3cccc(N)c3)oc2c1,"inconclusive: 14.1 µM [inhibitor, partial curve]"
15,COc1cccc2c(=S)c(CCC(C)=O)c(C)[nH]c12,inactive
16,CCCCN1C(C(=O)c2ccccc2)=C(OC(C)=O)c2ccccc2S1(=O)=O,"inconclusive: 17.8 µM [inhibitor, partial curve]"
17,COCc1cc(C)nc(OCC(=O)N/N=C/c2ccc(OC)c(O)c2)c1C#N,"inconclusive: 39.8 µM [inhibitor, single point]"
18,COc1ccc(NC(=O)CNC(=O)Cn2c(C)cc3ccccc3c2=O)cc1OC,"inconclusive: 31.6 µM [inhibitor, single point] and inconclusive: 25.1 µM [inhibitor, single point]"
19,Cc1ccc(-c2nc(Nc3cccc(C)c3)sc2CC(=O)O)cc1,"inconclusive: 12.6 µM [inhibitor, partial curve, poor fit]"
20,O=c1ccc2ccc(OCc3nnc(-c4ccccc4Br)o3)cc2o1,"inconclusive: 2.82 µM [inhibitor, full curve]"
21,CN1C(=O)/C(=C2\SC(=S)N(C(CCC(=O)O)C(=O)O)C2=O)c2ccccc21 (configuration not stated),"inconclusive: 25.1 µM [inhibitor, partial curve]"
22,CCOc1cccc(C(=O)Nc2cc(-c3ccc(C)cc3)no2)c1,"inconclusive: 3.55 µM [inhibitor, partial curve]"
23,COc1ccc(NC(=O)c2c(NC(=O)CCC(=O)O)sc(-c3ccccc3)c2C)cc1,"inconclusive: 22.4 µM [inhibitor, partial curve, poor fit]"

row,SMILES,Potency
1,Cc1ccc(NC(=O)CN2CCC(C(N)=O)CC2)cc1[N+](=O)[O-],inactive
2,O=C(COc1ccc(C(=O)c2ccccc2)cc1)NCC(=O)Nc1ccccc1Br,"inconclusive: 39.8 µM [inhibitor, single point]"
3,COc1ccc(OC)c(/C=N/Nc2nncn2/N=C/c2cc(OC)ccc2OC)c1,"inconclusive: 15.8 µM [inhibitor, single point]"
4,CCCc1ccc(OC(=O)c2ccc(O)cc2Cl)cc1,"inconclusive: 15.8 µM [inhibitor, partial curve]"
5,Cc1ccsc1C(=O)OCC(=O)c1cc2ccccc2o1,"inconclusive: 8.91 µM [inhibitor, partial curve]"
6,Cc1ccc(Nc2c(-c3ccco3)nc3ccccn23)cc1,inactive
7,COc1ccc(Nc2ncc(C(=O)N3CCN(c4ccc(F)cc4)CC3)c3ccccc23)cc1,"inconclusive: 15.8 µM [inhibitor, partial curve]"
8,Cc1ccc(-c2cc(-c3ccc(F)cc3)c(C#N)c(N)n2)o1,"inconclusive: 7.08 µM [inhibitor, single point]"
9,Cc1ccccc1Nc1cc(C(=O)NCc2cccs2)c2ccccc2n1,inactive
10,COc1ccc(S(=O)(=O)NC(C)C(=O)Nc2ccccc2F)cc1 (configuration not stated),"inconclusive: 39.8 µM [inhibitor, single point]"
11,Cc1ccc(CNC(=O)C2=CCN(S(=O)(=O)c3ccc(C)cc3)CC2)cc1,"inconclusive: 39.8 µM [inhibitor, single point]"
12,COc1ccccc1/C=C/c1nc(C#N)c(NCCc2ccccc2)o1,"inconclusive: 2.82 µM [inhibitor, full curve]"
13,Cc1ccc(C(=O)NC2CCCCCC2)o1,inactive
14,Cc1cc(=O)n2nc(N3CCC(C(=O)NCc4ccc(F)cc4)CC3)sc2n1,"inconclusive: 1.41 µM [inhibitor, full curve]"
15,[O-]/C(=C(\C(=S)NCc1ccccc1)[n+]1ccccc1)c1ccc(Cl)s1,"inconclusive: 20 µM [inhibitor, single point]"
16,CCOc1ccc(NCc2cccn2-c2nnc(N3CCC(C(=O)NCCOC)CC3)s2)cc1,"inconclusive: 11.2 µM [inhibitor, partial curve]"
17,COc1ccccc1/C=N/Nc1cc(N(C)C)nc(N(C)C)n1,"inconclusive: 17.8 µM [inhibitor, partial curve]"
18,COc1ccc(-c2nc3ccc(NS(=O)(=O)c4ccc(Cl)cc4)cc3o2)cc1,"inconclusive: 2.82 µM [activator, full curve]"
19,Cc1cc(N=Nc2ccc(Cl)cc2)cc(CN2CCOCC2)c1O,"inconclusive: 20 µM [inhibitor, partial curve]"
20,Cc1[nH]c2ccccc2c1/C=N/NC(N)=S,"inconclusive: 28.2 µM [inhibitor, partial curve]"
21,COc1ccc(C2C3=C(CC(C)(C)CC3=O)Nc3c2c(=O)n(C)c(=O)n3C)cc1OC (configuration not stated),inactive
